By IC50 is meant the dose at which the fit gives 50% viability; a limit (>, <) means that the fit lies beyond the doses tested. AUC sums up the same curve from the lowest dose to the 256-fold higher top dose: 1 means no effect, lower means more sensitive. Where the top dose is marked as inferred, it was derived from the fitted curves, not read from the paper.
What was measured:
FR-180204 = compound: Nc1[nH]nc2nnc(-c3c(-c4ccccc4)nn4ccccc34)cc12 [FR-180204]; test: Viability of human cancer cell lines after 72 h of drug (GDSC screen); details: top dose 20 µM; top dose inferred
Method: (§1)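 Human cancer cell lines in 384-well plates, medium with 10% serum, drug for 72 h over a 256-fold dose range (nine 2-fold or five 4-fold steps up to the top dose). Adherent lines were fixed and stained with the nucleic acid dye Syto60, suspension lines read with resazurin; signal relative to control wells, capped at 0 and 100%. One two-parameter sigmoid per drug and line, fitted in a mixed model over all curves with the slope shared within a line.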

FK866 = compound: O=C(/C=C/c1cccnc1)NCCCCC1CCN(C(=O)c2ccccc2)CC1 [FK866]; test: as above; details: top dose 1 µM; top dose inferred
Method: as §1

| Cell Line | AUC (FR-180204) | IC50 (FR-180204) | AUC (FK866) | IC50 (FK866) |
| --- | --- | --- | --- | --- |
| TE-5 (oesophagus, adherent) | 0.982 | > 20000 nM | 0.71 | 270 nM |
| TE-6 (oesophagus, adherent) | 0.978 | > 20000 nM | 0.856 | > 1000 nM |
| TE-8 (oesophagus, adherent) | 0.959 | > 20000 nM | 0.046 | < 3.91 nM |
| TE-9 (oesophagus, adherent) | 0.983 | > 20000 nM | 0.178 | 6.36 nM |
| TE-10 (oesophagus, adherent) | 0.973 | > 20000 nM | 0.196 | 8.01 nM |
| TE-11 (oesophagus, adherent) | 0.99 | > 20000 nM | 0.989 | > 1000 nM |
| TE-12 (oesophagus, suspension) | 0.953 | > 20000 nM | 0.949 | > 1000 nM |
| TE-15 (oesophagus, suspension) | 0.909 | > 20000 nM | 0.076 | < 3.91 nM |
| TGBC1TKB (biliary tract, adherent) | 0.987 | > 20000 nM | 0.894 | > 1000 nM |
| TGBC11TKB (stomach, adherent) | 0.987 | > 20000 nM | 0.241 | 12.5 nM |
| TGBC24TKB (biliary tract, adherent) | 0.97 | > 20000 nM | 0.963 | > 1000 nM |
| TGW (neuroblastoma, adherent) | 0.98 | > 20000 nM | 0.991 | > 1000 nM |
| THP-1 (acute myeloid leukaemia, suspension) | 0.9 | > 20000 nM | 0.032 | < 3.91 nM |
| TK10 (kidney, adherent) | 0.906 | > 20000 nM | 0.57 | 101 nM |
| TK (B-cell lymphoma, suspension) | 0.968 | > 20000 nM | 0.989 | > 1000 nM |
| TMK-1 (stomach, adherent) | 0.981 | > 20000 nM | 0.463 | 49.1 nM |
| TOV-21G (ovary, adherent) | 0.976 | > 20000 nM | 0.216 | 8.38 nM |
| TOV-112D (ovary, adherent) | 0.903 | > 20000 nM | 0.232 | 10.3 nM |
| TT2609-C02 (thyroid, adherent) | 0.975 | > 20000 nM | 0.985 | > 1000 nM |
| TT (thyroid, adherent) | 0.983 | > 20000 nM | 0.925 | > 1000 nM |
| TUR (B-cell lymphoma, suspension) | 0.978 | > 20000 nM | 0.023 | < 3.91 nM |
| TYK-nu (ovary, adherent) | 0.985 | > 20000 nM | 0.373 | 27.1 nM |
| U031 (kidney, adherent) | 0.967 | > 20000 nM | 0.335 | 21.3 nM |
| U251 (glioma, adherent) | 0.988 | > 20000 nM | 0.119 | 4.07 nM |
| U-2-OS (osteosarcoma, adherent) | 0.985 | > 20000 nM | 0.195 | 7.02 nM |

| Cell Line | AUC (FR-180204) | IC50 (FR-180204) | AUC (FK866) | IC50 (FK866) |
| --- | --- | --- | --- | --- |
| U-87-MG (glioma, adherent) | 0.976 | > 20000 nM | 0.349 | 22.1 nM |
| U-118-MG (glioma, adherent) | 0.964 | > 20000 nM | 0.565 | 96.5 nM |
| U-698-M (B-cell leukaemia, suspension) | 0.954 | > 20000 nM | 0.042 | < 3.91 nM |
| UACC-62 (melanoma, adherent) | 0.985 | > 20000 nM | 0.875 | 960 nM |
| UACC-257 (melanoma, adherent) | 0.969 | > 20000 nM | 0.844 | 996 nM |
| UM-UC-3 (bladder, adherent) | 0.965 | > 20000 nM | 0.126 | 4.49 nM |
| UMC-11 (lung carcinoid, adherent) | 0.984 | > 20000 nM | 0.843 | 602 nM |
| UWB1.289 (ovary, adherent) | 0.924 | > 20000 nM | 0.815 | 954 nM |
| VA-ES-BJ (soft tissue, adherent) | 0.985 | > 20000 nM | 0.964 | > 1000 nM |
| VAL (B-cell lymphoma, suspension) | 0.907 | > 20000 nM | 0.062 | < 3.91 nM |
| VCaP (prostate, adherent) | 0.94 | > 20000 nM | 0.967 | > 1000 nM |
| VM-CUB-1 (bladder, adherent) | 0.988 | > 20000 nM | 0.043 | < 3.91 nM |
| VMRC-MELG (melanoma, adherent) | 0.944 | > 20000 nM | 0.988 | > 1000 nM |
| VMRC-RCZ (kidney, adherent) | 0.974 | > 20000 nM | 0.602 | 125 nM |
| WIL2-NS (lymphoid neoplasm, suspension) | 0.992 | > 20000 nM | 0.019 | < 3.91 nM |
| WM35 (melanoma, adherent) | 0.85 | 15300 nM | 0.98 | > 1000 nM |
| WM278 (melanoma, adherent) | 0.954 | > 20000 nM | 0.403 | 32.7 nM |
| WM793B (melanoma, adherent) | 0.947 | > 20000 nM | 0.517 | 69.9 nM |
| WM1552C (melanoma, adherent) | 0.979 | > 20000 nM | 0.986 | > 1000 nM |
| WM-115 (melanoma, adherent) | 0.961 | > 20000 nM | 0.978 | > 1000 nM |
| WSU-DLCL2 (B-cell lymphoma, suspension) | 0.993 | > 20000 nM | 0.991 | > 1000 nM |
| WSU-NHL (lymphoid neoplasm, suspension) | 0.983 | > 20000 nM | 0.023 | < 3.91 nM |
| YAPC (pancreas, adherent) | 0.975 | > 20000 nM | 0.69 | 245 nM |
| YH-13 (glioma, adherent) | 0.974 | > 20000 nM | 0.969 | > 1000 nM |
| YKG-1 (glioma, adherent) | 0.978 | > 20000 nM | 0.444 | 43.7 nM |
